Test results from paper PMC4409396.
No constants are given. Whether binding was seen depends on the method and setting. Some entries that bind do so weakly or less than the wild type. Sequences can lack the tags named with a protein.

T1: His6-tagged FloT (Bacillus subtilis) (UniProt O32076)
T1 sequence: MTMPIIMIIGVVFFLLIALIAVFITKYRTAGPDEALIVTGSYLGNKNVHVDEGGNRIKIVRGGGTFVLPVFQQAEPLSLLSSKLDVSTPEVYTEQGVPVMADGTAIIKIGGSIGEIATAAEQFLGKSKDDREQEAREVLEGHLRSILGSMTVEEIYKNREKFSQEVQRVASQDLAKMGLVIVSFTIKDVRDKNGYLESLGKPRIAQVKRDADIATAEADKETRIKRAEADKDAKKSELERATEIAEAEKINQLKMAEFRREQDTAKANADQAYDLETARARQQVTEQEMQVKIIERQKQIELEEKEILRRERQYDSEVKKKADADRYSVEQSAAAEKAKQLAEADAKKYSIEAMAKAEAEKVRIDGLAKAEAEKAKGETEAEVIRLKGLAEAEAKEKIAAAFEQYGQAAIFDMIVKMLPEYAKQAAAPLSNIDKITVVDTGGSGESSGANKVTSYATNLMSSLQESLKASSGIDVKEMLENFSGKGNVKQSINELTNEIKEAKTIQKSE

T2: His6-tagged FloA (Bacillus subtilis) (UniProt P54466)
T2 sequence: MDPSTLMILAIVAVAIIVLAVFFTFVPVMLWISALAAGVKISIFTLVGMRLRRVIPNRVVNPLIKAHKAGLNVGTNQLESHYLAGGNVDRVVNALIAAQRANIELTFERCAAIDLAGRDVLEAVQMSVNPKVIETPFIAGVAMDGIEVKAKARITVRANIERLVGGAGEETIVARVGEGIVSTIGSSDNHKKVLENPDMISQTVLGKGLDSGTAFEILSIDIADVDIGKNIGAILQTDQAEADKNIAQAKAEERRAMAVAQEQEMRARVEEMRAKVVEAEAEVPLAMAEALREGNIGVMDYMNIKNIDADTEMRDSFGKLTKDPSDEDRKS

B1: YhfQ (protein, UniProt C0SP94 20-323)
chain: CSSSSGNQNSKEHKVAVTHDLGKTNVPEHPKRVVVLELGFIDTLLDLGITPVGVADDNKAKQLINKDVLKKIDGYTSVGTRSQPSMEKIASLKPDLIIADTTRHKKVYDQLKKIAPTIALNNLNADYQDTIDASLTIAKAVGKEKEMEKKLTAHEEKLSETKQKISANSQSVLLIGNTNDTIMARDENFFTSRLLTQVGYRYAISTSGNSDSSNGGDSVNMKMTLEQLLKTDPDVIILMTGKTDDLDADGKRPIEKNVLWKKLKAVKNGHVYHVDRAVWSLRRSVDGANAILDELQKEMPAAKK
B2: YacD (protein, UniProt P37566 33-297)
chain: SSSGESIATIGGKSVTREEWLKEMEDQYGKSTLEDMINVRVVEQLAKKNKLKISKSEVDREFLLIKAVNNSFYEDEHTTEKEWKDQIRYNILLEDLLTRDIDISNKELESFYNKNKELYQFDDSYRIRHIVVKDEEEAREVLKELKGGSSFEAVAAERSTDRYTSPYGGDLGFVTEASDNIPSAYIEEAKTLKEDEWSQEPIKVSNGYAIIQLKEKLKARTFSFDEVKDQIRRQIAMDQLGDKATVKTLWKEADVSWFYGEKSTK
B3: YclQ (protein, UniProt P94421 20-317)
chain: CGNQSTSSKGSDTKKEQITVKHQLDKNGTKVPKNPKKVVVFDFGSLDTLDKLGLDDIVAGLPKQVLPKYLSKFKDDKYADVGSLKEPDFDKVAELDPDLIIISARQSESYKEFSKIAPTIYLGVDTAKYMESFKSDAETIGKIFDKEDKVKDELANIDHSIADVKKTAEKLNKNGLVIMANDGKISAFGPKSRYGLIHDVFGVAPADQNIKASTHGQSVSYEYISKTNPDYLFVIDRGTAIGETSSTKQVVENDYVKNVNAVKNGHVIYLDSATWYLSGGGLESMTQMIKEVKDGLEK
B4: SecDF (protein, UniProt O32047 1-737)
chain: MKKGRLIAFFLFVLLIGTGLGYFTKPAANNITLGLDLQGGFEVLYDVQPVKKGDKITKDVLVSTVEALNRRANVLGVSEPNIQIEGNNRIRVQLAGVTNQNRAREILATEAQLSFRDANDKELLNGADLVENGAKQTYDSTTNEPIVTIKLKDADKFGEVTKKVMKMAPNNQLVIWLDYDKGDSFKKEVQKEHPKFVSAPNVSQELNTTDVKIEGHFTAQEAKDLASILNAGALPVKLTEKYSTSVGAQFGQQALHDTVFAGIVGIAIIFLFMLFYYRLPGLIAVITLSVYIYITLQIFDWMNAVLTLPGIAALILGVGMAVDANIITYERIKEELKLGKSVRSAFRSGNRRSFATIFDANITTIIAAVVLFIFGTSSVKGFATMLILSILTSFITAVFLSRFLLALLVESRWLDRKKGWFGVNKKHIMDIQDTDENTEPHTPFQKWDFTSKRKYFFIFSSAVTVAGIIILLVFRLNLGIDFASGARIEVQSDHKLTTEQVEKDFESLGMDPDTVVLSGEKSNIGVARFVGVPDKETIAKVKTYFKDKYGSDPNVSTVSPTVGKELARNALYAVAIASIGIIIYVSIRFEYKMAIAAIASLLYDAFFIVTFFSITRLEVDVTFIAAILTIIGYSINDTIVTFDRVREHMKKRKPKTFADLNHIVNLSLQQTFTRSINTVLTVVIVVVTLLIFGASSITNFSIALLVGLLTGVYSSLYIAAQIWLAWKGRELKKDSAQ
B5: YfiY (protein, UniProt O31567 21-325)
chain: CNSSESSSNSEVSSSKTRTVKHAMGTSDNIPANPKRIVVLTNEGTEALLALGIKPVGAVKSWKGDPWYDYLKDDMKGVKNVGLETEPNVEAIAELKPDLIIGNKVRQEKIYDQLNAIAPTVFAESLAGNWKDNLTLYANAVNKADKGKEVIADFDKRVSDLKNKLGDQTNKTVSVVRFLSGESRIYYTDSFPGIILDQLGFKRPEKQVELFKKQKDQFTFSTDSKESIPDMDADVLFYFTYKADNAKENEKWANQWTSSSLWKNLKAVKSGNAHEVDDVVWTTAGGIKAANYLLDDIETYFLKTK
B6: ResE (endogenous) (protein, UniProt P35164 1-589)
chain: MKFWKSVVGKLWFTILSLVLIVLFILTVLLLEFIENYHVEEAENDLTQLANKVAVILENHEDQALARSITWELADNLTSIAIIQDEKNHWYSPNDKNRLSSITVEQIQHDKDLNKALKDHKKVSKRTGLSDTDTDNERLIVGVPYEKDGKKGMVFLSQSLLAVKDTTKHTTRYIFLAAGIAIVLTTFFAFFLSSRVTYPLRKMREGAQDLAKGKFDTKIPILTQDEIGELATAFNQMGRQLNFHINALNQEKEQLSNILSSMADGVITINIDGTILVTNPPAERFLQAWYYEQNMNIKEGDNLPPEAKELFQNAVSTEKEQMIEMTLQGRSWVLLMSPLYAESHVRGAVAVLRDMTEERRLDKLREDFIANVSHELRTPISMLQGYSEAIVDDIASSEEDRKEIAQIIYDESLRMGRLVNDLLDLARMESGHTGLHYEKINVNEFLEKIIRKFSGVAKEKNIALDHDISLTEEEFMFDEDKMEQVFTNLIDNALRHTSAGGSVSISVHSVKDGLKIDIKDSGSGIPEEDLPFIFERFYKADKARTRGRAGTGLGLAIVKNIVEAHNGSITVHSRIDKGTTFSFYIPTKR
B7: PBP1A/1B (protein, UniProt P39793 1-914)
chain: MSDQFNSREARRKANSKSSPSPKKGKKRKKGGLFKKTLFTLLILFVLGVVGGAVTFAVMVSDAPSLDESKLKTPYSSTIYDKNGKEIAEVGAEKRTYVSIDEIPDVVKEAFIATEDARFYEHHGIDPVRIGGALVANFKDGFGAEGGSTITQQVVKNSLLSHQKTLKRKVQEVWLSIQLERNYSKDEILEMYLNRIYFSPRAYGIGKAAEEFFGVTDLSKLTVEQAATLAGMPQSPTAYNPVKNPDKAEKRRNIVLSLMKKQGFISDSQYNKAKKVAVKDEGVVSQKEYEKASTNKYSAFVEEVMKEIDEKSDVDPSADGLKIYTTLDTKAQDKLDELMDGDTVGFTEGMQGGVTLLDTKNGEVRAIGAGRNQPVGGFNYATQTKAQPGSTIKPILDYGPVIENKKWSTYEQIDDSAYTYSNGKPIRDWDRKYLGPISMRYALAQSRNIPALKAFQAVGKDTAVDFANGLGLGLTKDNVTEAYSIGGFGGNDGVSPLTMAGAYSAFGNNGTYNEPHFVKSIEFNDGTKLDLTPKSKSAMSDYTAFMITDMLKTAVKTGTGQLAQVPGVEVAGKTGTTNFDDNEVKRYNIASGGARDSWFVGYTPQYTAAVWTGMGENEAGKKSLSAEEQKVAKRIFAQLIADVDDGSGSFEKPDSVVEATVEKGSNPAKLAGPNTPSDKKLTEYFVKGTAPSTVSKTYEKEEKEETAKLSGLNVKYDKDNQSLTLSWNYDGDATFAVKQSVDGGSYSEIQNSSAKEAVISGVQPGSVYKFEVTAVSDDGKSTASTSYEVPKAEDDEDKKDQQQTDDEKQDDEKTQDDTQTDDSQKDDGQTDQDQTDDSTNDQDKKQDNTNTNPSDNNNQDQSNDNDNDNSNNQDTSDGDSNSGKNDSTGSDTNKNKTDTSNKTQTNSSSIEKTN
B8: TagU (protein, UniProt Q02115 1-306)
chain: MRNERRKKKKTLLLTILTIIGLLVLGTGGYAYYLWHKAASTVASIHESIDKSKKRDKEVSINKKDPFSVLIMGVDERDGDKGRADTLIYMTVNPKTNTTDMVSIPRDTYTKIIGKGTMDKINHSYAFGGTQMTVDTVENFLDVPVDYFVKVNMESFRDVVDTLGGITVNSTFAFSYDGYSFGKGEITLNGKEALAYTRMRKEDPRGDFGRQDRQRQVIQGIINKGANISSITKFGDMFKVVENNVKTNLTFDNMWDIQSDYKGARKHIKQHELKGTGTKINGIYYYQADESALSDITKELKESLEK

biological target: T1, His6-tagged FloT (Bacillus subtilis); assay: native gel or EMSA; blue-native PAGE (4-20% gradient) of the membrane fraction, solubilised with 1% DDM, of B. subtilis overexpressing His6-FloA or His6-FloT; bands that held the flotillin found by anti-His immunoblot, cut and analysed by LC/MS

binding, binds:
FtsH (from UniProt P37476 1-637)
SecA (from UniProt P28366 1-841)
OppABCDF oligopeptide permease (from UniProt P24141 21-545; P24138 1-311; P24139 1-305; P24136 1-358; P24137 1-305) (complex)
B1
B2
B3
B4
B5
B6

biological target: T2, His6-tagged FloA (Bacillus subtilis); assay: as above

binding, binds:
PhoR (endogenous) (from UniProt P23545 1-579)
FtsH (from UniProt P37476 1-637)
OppABCDF oligopeptide permease (from UniProt P24141 21-545; P24138 1-311; P24139 1-305; P24136 1-358; P24137 1-305) (complex)
B7
B8
